# Article PMC2685004, “Recruitment of a SAP18-HDAC1 Complex into HIV-1 Virions and Its Requirement for Viral Replication” (PLoS Pathogens, 2009)
# By UniProt entry, the sequences of proteins in these tests, tags left out.
# UniProt Q12824: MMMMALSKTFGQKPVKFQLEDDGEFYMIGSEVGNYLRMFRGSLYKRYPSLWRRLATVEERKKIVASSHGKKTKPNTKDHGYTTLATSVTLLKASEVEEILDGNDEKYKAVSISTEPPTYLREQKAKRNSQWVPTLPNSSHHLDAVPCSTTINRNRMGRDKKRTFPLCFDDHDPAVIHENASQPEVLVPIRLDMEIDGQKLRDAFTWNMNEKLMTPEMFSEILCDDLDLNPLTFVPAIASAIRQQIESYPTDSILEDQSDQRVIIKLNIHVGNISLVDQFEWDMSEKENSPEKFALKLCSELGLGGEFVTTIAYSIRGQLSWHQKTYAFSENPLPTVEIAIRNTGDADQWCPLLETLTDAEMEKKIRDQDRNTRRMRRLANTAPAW
# UniProt Q13547: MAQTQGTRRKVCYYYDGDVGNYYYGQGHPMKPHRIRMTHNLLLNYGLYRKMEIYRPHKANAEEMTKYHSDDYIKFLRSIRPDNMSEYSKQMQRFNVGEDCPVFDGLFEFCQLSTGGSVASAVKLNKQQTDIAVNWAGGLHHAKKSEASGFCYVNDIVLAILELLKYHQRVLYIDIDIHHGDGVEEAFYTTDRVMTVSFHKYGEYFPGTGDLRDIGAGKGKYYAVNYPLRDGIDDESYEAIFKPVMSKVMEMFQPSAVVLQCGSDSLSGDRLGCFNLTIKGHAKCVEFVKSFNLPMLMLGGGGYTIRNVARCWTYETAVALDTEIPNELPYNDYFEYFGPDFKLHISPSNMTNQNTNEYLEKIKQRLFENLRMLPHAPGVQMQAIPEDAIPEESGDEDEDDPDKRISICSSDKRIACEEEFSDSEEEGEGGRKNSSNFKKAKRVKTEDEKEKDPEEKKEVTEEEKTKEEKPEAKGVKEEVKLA
# UniProt P01106: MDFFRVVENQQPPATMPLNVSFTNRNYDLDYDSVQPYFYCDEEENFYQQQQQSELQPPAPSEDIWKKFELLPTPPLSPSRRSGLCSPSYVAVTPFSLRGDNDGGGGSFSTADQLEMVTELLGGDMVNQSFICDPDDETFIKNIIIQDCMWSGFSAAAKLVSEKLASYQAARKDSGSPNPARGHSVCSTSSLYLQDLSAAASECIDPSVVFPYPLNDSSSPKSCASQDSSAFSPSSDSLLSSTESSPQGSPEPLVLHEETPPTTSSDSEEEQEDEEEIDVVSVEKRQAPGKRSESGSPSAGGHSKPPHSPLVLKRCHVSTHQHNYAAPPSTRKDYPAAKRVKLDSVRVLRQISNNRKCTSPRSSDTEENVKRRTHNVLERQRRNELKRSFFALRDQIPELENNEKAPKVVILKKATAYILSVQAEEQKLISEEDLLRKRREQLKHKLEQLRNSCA
# UniProt P51532: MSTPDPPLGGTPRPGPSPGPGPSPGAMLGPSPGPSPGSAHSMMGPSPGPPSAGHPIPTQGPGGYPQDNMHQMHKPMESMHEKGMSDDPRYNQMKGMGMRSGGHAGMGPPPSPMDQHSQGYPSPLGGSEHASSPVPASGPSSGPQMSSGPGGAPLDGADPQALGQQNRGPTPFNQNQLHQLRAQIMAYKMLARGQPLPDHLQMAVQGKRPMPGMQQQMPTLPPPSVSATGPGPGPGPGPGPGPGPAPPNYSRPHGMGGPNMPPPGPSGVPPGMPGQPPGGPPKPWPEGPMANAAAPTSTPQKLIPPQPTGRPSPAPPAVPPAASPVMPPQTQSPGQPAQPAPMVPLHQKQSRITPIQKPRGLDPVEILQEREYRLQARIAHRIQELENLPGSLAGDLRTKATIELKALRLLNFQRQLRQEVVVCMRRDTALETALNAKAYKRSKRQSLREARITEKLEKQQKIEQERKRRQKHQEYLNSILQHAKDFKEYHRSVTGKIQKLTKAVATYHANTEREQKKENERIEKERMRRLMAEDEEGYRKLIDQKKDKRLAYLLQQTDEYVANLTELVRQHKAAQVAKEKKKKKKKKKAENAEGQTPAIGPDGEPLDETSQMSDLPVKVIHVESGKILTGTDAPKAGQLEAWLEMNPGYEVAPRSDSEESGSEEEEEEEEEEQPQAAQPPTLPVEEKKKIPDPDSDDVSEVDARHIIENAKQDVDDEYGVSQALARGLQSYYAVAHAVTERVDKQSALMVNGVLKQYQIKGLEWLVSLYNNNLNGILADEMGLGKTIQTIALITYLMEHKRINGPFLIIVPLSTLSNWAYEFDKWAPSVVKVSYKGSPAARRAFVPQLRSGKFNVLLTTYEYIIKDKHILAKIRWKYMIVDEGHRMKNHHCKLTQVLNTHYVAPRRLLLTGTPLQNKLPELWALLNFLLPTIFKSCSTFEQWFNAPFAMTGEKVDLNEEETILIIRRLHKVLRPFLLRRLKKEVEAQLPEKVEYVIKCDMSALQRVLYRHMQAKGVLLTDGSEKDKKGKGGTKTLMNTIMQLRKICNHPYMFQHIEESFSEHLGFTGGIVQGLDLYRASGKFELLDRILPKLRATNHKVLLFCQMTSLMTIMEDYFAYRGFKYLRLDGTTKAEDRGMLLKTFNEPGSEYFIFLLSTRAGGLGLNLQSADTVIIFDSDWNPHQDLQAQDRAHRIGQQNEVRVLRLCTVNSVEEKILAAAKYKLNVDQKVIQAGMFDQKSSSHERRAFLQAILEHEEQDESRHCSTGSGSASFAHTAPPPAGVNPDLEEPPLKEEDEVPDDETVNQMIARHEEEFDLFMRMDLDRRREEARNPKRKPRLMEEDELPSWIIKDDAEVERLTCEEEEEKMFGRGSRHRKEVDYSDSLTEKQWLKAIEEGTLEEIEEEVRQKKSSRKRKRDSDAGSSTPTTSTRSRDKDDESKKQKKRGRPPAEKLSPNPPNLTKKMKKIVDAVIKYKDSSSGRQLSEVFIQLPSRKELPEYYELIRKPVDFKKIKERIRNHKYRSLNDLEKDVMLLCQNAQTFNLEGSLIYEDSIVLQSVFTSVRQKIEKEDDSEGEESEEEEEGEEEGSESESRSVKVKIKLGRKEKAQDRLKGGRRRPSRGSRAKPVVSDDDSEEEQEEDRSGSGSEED
# UniProt Q12873: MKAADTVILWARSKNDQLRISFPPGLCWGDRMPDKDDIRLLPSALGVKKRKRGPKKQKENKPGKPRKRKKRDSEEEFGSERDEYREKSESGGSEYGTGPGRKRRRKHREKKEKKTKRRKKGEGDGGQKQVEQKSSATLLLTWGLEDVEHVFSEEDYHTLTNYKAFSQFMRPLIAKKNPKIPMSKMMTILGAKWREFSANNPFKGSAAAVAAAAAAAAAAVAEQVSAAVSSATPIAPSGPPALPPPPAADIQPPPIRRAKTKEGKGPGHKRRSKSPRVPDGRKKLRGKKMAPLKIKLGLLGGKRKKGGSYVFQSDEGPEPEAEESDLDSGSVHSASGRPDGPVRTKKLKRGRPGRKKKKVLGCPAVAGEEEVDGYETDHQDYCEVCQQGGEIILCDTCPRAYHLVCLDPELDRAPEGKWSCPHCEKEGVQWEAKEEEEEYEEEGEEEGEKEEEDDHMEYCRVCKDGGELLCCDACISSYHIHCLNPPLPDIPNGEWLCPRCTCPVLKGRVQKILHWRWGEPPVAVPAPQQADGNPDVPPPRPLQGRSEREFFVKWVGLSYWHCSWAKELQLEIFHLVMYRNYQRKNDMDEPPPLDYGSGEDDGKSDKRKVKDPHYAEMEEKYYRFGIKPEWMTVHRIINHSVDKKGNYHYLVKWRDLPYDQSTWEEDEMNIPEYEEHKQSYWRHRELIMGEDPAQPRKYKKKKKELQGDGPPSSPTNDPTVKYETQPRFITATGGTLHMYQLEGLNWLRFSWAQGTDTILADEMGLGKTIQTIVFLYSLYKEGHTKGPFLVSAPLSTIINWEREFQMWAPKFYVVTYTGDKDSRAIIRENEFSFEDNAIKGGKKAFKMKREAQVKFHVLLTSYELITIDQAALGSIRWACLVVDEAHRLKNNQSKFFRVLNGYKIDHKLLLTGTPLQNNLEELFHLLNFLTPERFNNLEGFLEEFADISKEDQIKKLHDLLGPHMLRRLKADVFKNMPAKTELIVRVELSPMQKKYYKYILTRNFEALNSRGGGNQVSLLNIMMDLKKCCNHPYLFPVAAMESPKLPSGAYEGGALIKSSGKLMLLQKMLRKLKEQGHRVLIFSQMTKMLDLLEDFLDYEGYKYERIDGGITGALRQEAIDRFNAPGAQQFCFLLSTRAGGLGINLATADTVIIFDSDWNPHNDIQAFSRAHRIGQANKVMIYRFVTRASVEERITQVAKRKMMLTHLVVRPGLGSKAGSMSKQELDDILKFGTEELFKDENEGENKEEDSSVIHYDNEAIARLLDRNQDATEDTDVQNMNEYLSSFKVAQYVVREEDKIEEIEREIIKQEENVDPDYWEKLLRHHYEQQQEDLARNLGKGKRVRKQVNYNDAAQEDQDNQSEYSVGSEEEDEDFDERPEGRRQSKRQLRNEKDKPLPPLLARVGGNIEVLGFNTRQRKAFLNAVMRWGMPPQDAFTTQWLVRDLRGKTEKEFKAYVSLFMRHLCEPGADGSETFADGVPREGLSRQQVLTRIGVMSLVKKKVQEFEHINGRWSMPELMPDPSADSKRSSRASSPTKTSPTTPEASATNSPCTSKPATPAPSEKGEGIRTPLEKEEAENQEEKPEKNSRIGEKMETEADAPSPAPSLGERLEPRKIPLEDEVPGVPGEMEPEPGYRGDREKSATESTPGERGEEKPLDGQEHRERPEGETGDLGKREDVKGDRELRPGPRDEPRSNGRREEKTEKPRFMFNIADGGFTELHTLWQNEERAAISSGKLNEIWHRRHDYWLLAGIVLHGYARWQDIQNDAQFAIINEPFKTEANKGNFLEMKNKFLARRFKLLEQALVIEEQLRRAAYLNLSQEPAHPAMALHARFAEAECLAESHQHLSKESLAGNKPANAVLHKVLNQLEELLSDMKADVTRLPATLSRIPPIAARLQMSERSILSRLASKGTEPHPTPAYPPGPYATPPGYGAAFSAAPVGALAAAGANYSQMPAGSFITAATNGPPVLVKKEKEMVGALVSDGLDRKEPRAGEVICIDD
# Results are given in words; binding and its absence hold for the method and conditions named. For some of these results: In cells and extracts the contact can be indirect. Some binding calls cover weakened binding; strength is not graded here. For some of these results: Tags and fused reporters may be left off the sequences shown.
# T1: FLAG-SAP18 (in 293T cells) (UniProt O00422)
# T1 sequence: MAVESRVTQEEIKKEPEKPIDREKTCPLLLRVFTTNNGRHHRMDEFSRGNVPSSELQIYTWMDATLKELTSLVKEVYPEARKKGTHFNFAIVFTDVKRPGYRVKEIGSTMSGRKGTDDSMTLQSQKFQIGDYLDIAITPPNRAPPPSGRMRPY
# T2: SAP18, endogenous in HeLa cells (human (endogenous in HeLa)) (UniProt O00422)
# T2 sequence: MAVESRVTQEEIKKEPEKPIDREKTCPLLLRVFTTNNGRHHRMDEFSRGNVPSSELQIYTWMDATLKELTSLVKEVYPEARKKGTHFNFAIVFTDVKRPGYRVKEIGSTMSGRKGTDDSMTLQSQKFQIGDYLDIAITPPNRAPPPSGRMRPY
# Legend:
# [1] = molecular target: HA-INI1/hSNF5 (in MON and HeLa cells) (human) (UniProt Q12824); experiment: co-IP; MON (INI1-/-) and HeLa cells transfected with HA-INI1; α-HA or α-HDAC1 antibodies, α-6His or no antibody as controls; buffer G (dPBS, 0.1% IGEPAL), protein A sepharose, 4°C overnight
# [2] = molecular target: HDAC1, endogenous in MON and HeLa cells (human (endogenous in HeLa and MON)) (UniProt Q13547); experiment: as above
# [3] = molecular target: T1, FLAG-SAP18 (in 293T cells); experiment: co-IP; 293T cells transfected with two of HA-INI1, FLAG-SAP18 and YFP-IN; α-FLAG, α-HA or α-GFP antibodies, Protein A Agarose; co-IP buffer with 150 mM NaCl, 1% Triton-X, micrococcal nuclease
# [4] = molecular target: T2, SAP18, endogenous in HeLa cells (human (endogenous in HeLa)); experiment: co-IP; confluent HeLa cells, endogenous proteins; α-SAP18 antibody or rabbit IgG, Protein A Agarose; 20 mM HEPES-KOH pH 7.9, 150 mM NaCl, 1% Triton-X, micrococcal nuclease
# [5] = molecular target: FLAG-INI1 (in 293T cells) (human) (UniProt Q12824); experiment: co-IP; 293T cells co-transfected with FLAG-INI1 and HIV-1 viral vectors or an empty vector (or YFP-IN or pCDNA); α-FLAG antibodies, FLAG Immunoprecipitation Kit
# LexADB-INI1 (human) = LexADB-INI1 (human) (UniProt Q12824); experiment: two-hybrid; LexADB fusions as bait, GAL4AC fusion of the HL60 cDNA library clone as prey, in yeast
# LexADB-cMYC = LexADB-cMYC (UniProt P01106); experiment: as above
# [6] = molecular target: HA-INI1 (in 293T cells) (human) (UniProt Q12824); experiment: co-IP; 293T cells transfected with FLAG-SAP18, HA-INI1 and YFP-IN together; α-HA antibodies, Protein A Agarose; co-IP buffer with 150 mM NaCl, 1% Triton-X, micrococcal nuclease
molecule,measurement,setting,value
"HDAC1, endogenous in MON and HeLa cells (from UniProt Q13547 1-482) (enzyme)",binding,[1],binds
"BRG1, endogenous in MON and HeLa cells (from UniProt P51532 1-1647)",binding,[1],binds
"CHD3, endogenous in MON and HeLa cells (from UniProt Q12873 1-2000)",binding,[1],no binding
same,binding,[2],binds
HA-INI1 (in 293T cells) (from UniProt Q12824 1-385),binding,[3],binds
"INI1, endogenous in HeLa cells (from UniProt Q12824 1-385)",binding,[4],binds
"BRG1, endogenous in 293T cells (from UniProt P51532 1-1647)",binding,[5],binds
HA-INI1/hSNF5 (in MON and HeLa cells) (from UniProt Q12824 1-385),binding,[2],binds
"HDAC1, endogenous in 293T cells (from UniProt Q13547 1-482) (enzyme)",binding,[5],binds
"GAL4AC fusion of SAP18 fragment (aa 45-153), clone #18829-49.1 (domain or fragment, UniProt O00422 45-153) EFSRGNVPSSELQIYTWMDATLKELTSLVKEVYPEARKKGTHFNFAIVFTDVKRPGYRVKEIGSTMSGRKGTDDSMTLQSQKFQIGDYLDIAITPPNRAPPPSGRMRPY",binding,LexADB-INI1 (human),binds
same,binding,LexADB-cMYC,no binding
"SAP18, endogenous in 293T cells (protein, UniProt O00422 1-153) MAVESRVTQEEIKKEPEKPIDREKTCPLLLRVFTTNNGRHHRMDEFSRGNVPSSELQIYTWMDATLKELTSLVKEVYPEARKKGTHFNFAIVFTDVKRPGYRVKEIGSTMSGRKGTDDSMTLQSQKFQIGDYLDIAITPPNRAPPPSGRMRPY",binding,[5],binds
"FLAG-SAP18 (in 293T cells) (protein, UniProt O00422 1-153) MAVESRVTQEEIKKEPEKPIDREKTCPLLLRVFTTNNGRHHRMDEFSRGNVPSSELQIYTWMDATLKELTSLVKEVYPEARKKGTHFNFAIVFTDVKRPGYRVKEIGSTMSGRKGTDDSMTLQSQKFQIGDYLDIAITPPNRAPPPSGRMRPY",binding,[6],binds
